Source: the RNAGym collection of RNA variant scans (doi:10.7554/elife.90254)
The source gives no read counts; variants with many changes may rest on few reads.

B1: LINE1-full (parent)
chain: UACGUAGGUGGUUUUCCCCUGAUAGUGCUAAGGGGGCCUGGAAGUUUGGACUGGGCAGAGCUCAACACAGCGUGGCAAAGUGGCUGUGGCUAGACUGCCUCUCUGGAUUCCUCGUCACUCAGCAGGGCAUCUCUGAGAGAAAUGCC

Variants of: B1
Assay: self-cleavage, relative activity (ratio to wild type); higher = more cleavage; in vitro, sequencing; the parent is a self-cleaving ribozyme
For U14A U20G U62C G93U U102C C133U, the self-cleavage was 0.29. Variant U14C A22G G32A U45C U46A A94G has a self-cleavage of 0. U14C C19U U73C gave a self-cleavage of 0.87. Variant U14C U46C C68U A124U has a self-cleavage of 0.35. Variant U14C U23C U91C A136U has a self-cleavage of 1.23. Variant U14A A59G U100C C116U U134C has a self-cleavage of 0. For U14C U46C A79G C103A A124U, the self-cleavage was 1. Variant U14C A67G A107C U130C A142G has a self-cleavage of 0. In the case of U14C A79G U130A, the self-cleavage is reported as 1.53. In the case of U14C U46C U87C, the self-cleavage is reported as 0.41. U14C G114A U134A showed a self-cleavage of 0.71. U14A U26A U46C A67U A69U gave a self-cleavage of 0.03. Variant U14C U62A A140G U143C has a self-cleavage of 0.17. Work on U14A C61U G125U yielded a self-cleavage of 0.04. U14C A30G U39C U46A U96G gave a self-cleavage of 0. Variant U14C A22G U45G U100C A140G has a self-cleavage of 0.26. For U14A U45C U87C, the self-cleavage was 0.16. For U14C G40U A50G U130C, the self-cleavage was 1.24. With U14C G74A A94G the self-cleavage was 0. In the case of U14C A79C U87C, the self-cleavage is reported as 0.54. Variant U14C U45C U108C G125U has a self-cleavage of 1.39. Work on U14C G53A U96C U134C A142C yielded a self-cleavage of 0.06. Work on U14C U39C U45C yielded a self-cleavage of 1.63. Work on U14C U47A A69U G72A A92G A141G A142G yielded a self-cleavage of 0.1. Variant U14A A24U U52C A141G has a self-cleavage of 0.47. U14C A22U A92U A140G gave a self-cleavage of 0.33. Variant U14C G74A U134C has a self-cleavage of 0.96. Variant U14C U47C A77G U132C has a self-cleavage of 1.41. U14A U45A C123G U132A gave a self-cleavage of 1.05. For U14C G34U U52A A141G, the self-cleavage was 1.6. U14A A59G A67U gave a self-cleavage of 0. Variant U14C A43G A141G has a self-cleavage of 1.29. U14A A121G A136G gave a self-cleavage of 0.21. Work on U14C G40A U73A U119C yielded a self-cleavage of 0.96. U14C A31G A79G U96C showed a self-cleavage of 0. Work on U14A U46C U47C U100C yielded a self-cleavage of 0. In the case of U14C A64G U73C, the self-cleavage is reported as 0.44. Variant U14A G35A G80A has a self-cleavage of 1.18. In the case of U14A U20C G114A U115C, the self-cleavage is reported as 1.06. In the case of U14C U52A A124G, the self-cleavage is reported as 0.68. For U14C U45G A138U A140U, the self-cleavage was 1.53. With U14C U46C U52A U102A A141U the self-cleavage was 0.87. For U14C G35A A78U U96C, the self-cleavage was 0.1. U14C A50G A121G gave a self-cleavage of 1.19. U14C U39C A121G gave a self-cleavage of 2.04. U14C U39A A140G gave a self-cleavage of 1.42. U14C U45C C71U U119A gave a self-cleavage of 1.21. In the case of U14A U45C U73C C113U, the self-cleavage is reported as 1.25. In the case of U14C A22G A50G U91C G97A, the self-cleavage is reported as 0.36. Work on U14C U26C U52C G55A U104A yielded a self-cleavage of 0.16. Work on U14A A30G A117C G144A yielded a self-cleavage of 1.15. U14C G21U G34U A64G A140U gave a self-cleavage of 0.46. U14C U62A U81C gave a self-cleavage of 0.14. In the case of U14A U46C U112A, the self-cleavage is reported as 1.06. Variant U14C A24G U87A U112A G139A has a self-cleavage of 0. In the case of U14C A138G A142C, the self-cleavage is reported as 1.37. U14C G36A A57G U104A showed a self-cleavage of 0.33. For U14C C37U U109A, the self-cleavage was 0.51. For U14C U26C A65G A78G, the self-cleavage was 0.77. U14C A22G U47A U108C C133U U143C showed a self-cleavage of 1.61. U14C U20A U81C U115G gave a self-cleavage of 0. U14A U62C A79G A92U gave a self-cleavage of 0. With U14C U46C A69G the self-cleavage was 0.19. U14C U20C U132C gave a self-cleavage of 1.39. In the case of U14C U62A U87C G126A, the self-cleavage is reported as 0.09. For U14C G27A U115C, the self-cleavage was 1.42. In the case of U14C A65G C103U, the self-cleavage is reported as 0.12. Variant U14A A69G U81A U132A A138G has a self-cleavage of 0.46. With U14A A42G U73A the self-cleavage was 1.05. U14C A42G C120U gave a self-cleavage of 0.61. U14C U45C U104A U132A A141G gave a self-cleavage of 0.92. U14C C51U A140U showed a self-cleavage of 0.97. For U14C A57U G70U, the self-cleavage was 0.07. With U14C A43G U47A the self-cleavage was 0.95. Variant U14C U39A U91C U100A C110U has a self-cleavage of 0.07. For U14A U46C U100C C113U A117G, the self-cleavage was 2.22. U14C G60U U91C U119A gave a self-cleavage of 0.05. U14C G53U U104C U115C gave a self-cleavage of 1.95. For U14C U23C C37G A94G G106A A138G, the self-cleavage was 0.5. U14C U26A A78G gave a self-cleavage of 0.56. With U14A U15C U26C U87A the self-cleavage was 0.32. With U14C A57G A77G U85C the self-cleavage was 1.53. For U14A A24G G106A G125U, the self-cleavage was 1.37. In the case of U14C U39C U87A U96A, the self-cleavage is reported as 0.08.
